The record followed here is a collection of fitness landscapes (doi:10.1126/science.1257360).

B1: PhoQ; a variant is named by its letters at X, in order, P23837 (parent)
chain: MKKLLRLFFPLSLRVRFLLATAAVVLVLSLAYGMVALIGYSVSFDKTTFRLLRGESNLFYTLAKWENNKLHVELPENIDKQSPTMTLIYDENGQLLWAQRDVPWLMKMIQPDWLKSNGFHEIEADVNDTSLLLSGDHSIQQQLQEVREDDDDAEMTHSVAVNVYPATSRMPKLTIVVVDTIPVELKSSYMVWSWFIYVLSANLLLVIPLLWVAAWWSLRPIEALAKEVRELEEHNRELLNPATTRELTSLVRNLNRLLKSERERYDKYRTTLTDLTHSLKTPLXXLQXXLRSLRSEKMSVSDAEPVMLEQISRISQQIGYYLHRASMRGGTLLSRELHPVAPLLDNLTSALNKVYQRKGVNISLDISPEISFVGEQNDFVEVMGNVLDNACKYCLEFVEISARQTDEHLYIVVEDDGPGIPLSKREVIFDRGQRVDTLRPGQGVGLAVAREITEQYEGKIVAGESMLGGARMEVIFGRQHSAPKDE

The other results are listed elsewhere or left out. A value given as a limit tells only on which side of the number the result lay.

In the test the parent is B1. In words: enrichment ratio after two sorts for PhoP signalling (ratio (wild type AVST 3.29)); higher = more functional. The conditions noted are these: with PhoP (E. coli).
As to PEEE, the enrichment ratio is at most 0.25.
Next, SYWS: at most 0.25; TPYF: at most 0.25.
In the case of ASVF, the enrichment ratio stood at 9.65.
As for MYAR, the figure is at most 0.25; as for EIPG, at most 0.25.
As for ADFE, the figure is at most 0.25; as for EDYF, at most 0.25.
Next, GNIF: at most 0.25; YQMF: at most 0.25; WSCG: at most 0.25.
FGSM: the enrichment ratio is at most 0.25.
As for SLML, the figure is 7.15; as for KHTF, at most 0.25; as for REQY, at most 0.25.
Consider IMFI, for which the enrichment ratio is at most 0.25.
As for VNRD, the figure is at most 0.25; as for YWKI, at most 0.25.
Regarding TAAC, the enrichment ratio is 8.73.
For PGPE, the enrichment ratio was at most 0.25.
As for DPTH, the enrichment ratio was at most 0.25.
Turning to TWCG, the enrichment ratio is at most 0.25.
With GFQP, the enrichment ratio was at most 0.25.
As for NWFM, the figure is at most 0.25; as for NFHL, at most 0.25; as for RAAQ, at most 0.25.
Next, SMAY: 25.3; RSAW: at most 0.25; TICV: 6.14.
Next, WDFY: at most 0.25; LASS: at most 0.25; MFER: at most 0.25.
For the variant DHVY, the enrichment ratio was at most 0.25.
Regarding SHCK, the enrichment ratio is at most 0.25.
Regarding RECR, the enrichment ratio is at most 0.25.
As for KVRP, the figure is at most 0.25; as for HICF, at most 0.25.
As to NRFF, the enrichment ratio was at most 0.25.
As for NQPM, the figure is at most 0.25.
Next, NLNN: at most 0.25; TTHY: 3.33.
For MKNH, the enrichment ratio was at most 0.25.
Next, QVCI: at most 0.25; VLRF: at most 0.25.
On to KEAD, for which the enrichment ratio is at most 0.25.
As for ANPK, the figure is at most 0.25.
Turning to YCHQ, the enrichment ratio was at most 0.25.
As for DHWP, the enrichment ratio was at most 0.25.
As for WYSI, the figure is at most 0.25.
As for HNRL, the figure is at most 0.25; as for YWSN, at most 0.25; as for WHRM, at most 0.25.
Next, TVME: 11.7; VPPP: at most 0.25.
Turning to EQGV, the enrichment ratio is at most 0.25.
Next, ASET: at most 0.25.
Next, HAVK: at most 0.25; VDAL: at most 0.25.
Next, IMVA: at most 0.25.
VRRI: the enrichment ratio was at most 0.25.
Take WRSR: the enrichment ratio was at most 0.25.
Next, WSGY: at most 0.25; MDRE: at most 0.25.
For the variant LCMN, the enrichment ratio was at most 0.25.
DCKV: the enrichment ratio was at most 0.25.
On to RAFS, for which the enrichment ratio is at most 0.25.
Next, SRKL: at most 0.25; QFVN: at most 0.25.
As for PVPE, the figure is at most 0.25; as for NWTW, at most 0.25.
As for MIVF, the enrichment ratio was at most 0.25.
As for LCRR, the figure is at most 0.25; as for KYII, at most 0.25.
Next, SKER: at most 0.25; RPVT: at most 0.25.
As for GFRP, the figure is at most 0.25; as for PTFC, at most 0.25.
Turning to VGAM, the enrichment ratio was determined as 6.38.
As for WTLQ, the figure is at most 0.25; as for LRLY, at most 0.25.
Consider VSDW, for which the enrichment ratio is at most 0.25.
In the case of QYYA, the enrichment ratio is at most 0.25.
As for VHYE, the figure is at most 0.25.
As for NFFM, the figure is at most 0.25; as for SGLQ, 16.6; as for PRPH, at most 0.25.
Consider WRVY, for which the enrichment ratio was at most 0.25.
As for YKIY, the figure is at most 0.25; as for VNQL, 1.
As for HPML, the figure is at most 0.25.
Next, YIVY: at most 0.25; HKFY: at most 0.25.
Take VTLM: the enrichment ratio was found to be 10.8.
Next, KVKM: at most 0.25.
As for RVQF, the figure is at most 0.25.
Next, PQDT: at most 0.25; SFQL: at most 0.25.
On to GYSH, for which the enrichment ratio is at most 0.25.
As for HILM, the figure is at most 0.25.
Next, LCAW: at most 0.25; LKGR: 0.425.
As for GDTT, the figure is at most 0.25.
In the case of YRTL, the enrichment ratio was at most 0.25.
As for NYDT, the figure is at most 0.25.
Next, MRPM: at most 0.25.
As for GQMF, the figure is at most 0.25; as for APAF, at most 0.25.
As for QYAP, the enrichment ratio was at most 0.25.
As for EEKV, the figure is at most 0.25.
As for TVNN, the figure is 12.7.
As for NRSD, the figure is at most 0.25; as for SQHC, at most 0.25; as for SKPH, at most 0.25.
For ASLI, the enrichment ratio was 12.7.
Consider DIYG, for which the enrichment ratio was at most 0.25.
As for NNGD, the figure is at most 0.25; as for HSHD, at most 0.25; as for RLAA, at most 0.25.
Next, GFCF: at most 0.25.
As for NAFC, the figure is at most 0.25.
As to FCMW, the enrichment ratio was at most 0.25.
For the variant GNNF, the enrichment ratio is at most 0.25.
Next, RPQW: at most 0.25.
In the case of VRYV, the enrichment ratio is at most 0.25.
As for QLRW, the figure is at most 0.25; as for TWLS, at most 0.25.
Consider KFEA, for which the enrichment ratio is at most 0.25.
As for TRIP, the figure is at most 0.25; as for MSVS, at most 0.25.
As for RVLT, the figure is at most 0.25; as for MKTE, at most 0.25.
Next, FGNN: at most 0.25; KCME: at most 0.25.
Regarding NMGS, the enrichment ratio was at most 0.25.
Next, DQYQ: at most 0.25; YRLK: at most 0.25; WIPD: at most 0.25.
As for NDHC, the figure is at most 0.25; as for SAFW, at most 0.25.
As for VFND, the figure is at most 0.25; as for PVWT, at most 0.25.
Consider ATYF, for which the enrichment ratio is at most 0.25.
With ACRQ, the enrichment ratio is at most 0.25.
FHLL: the enrichment ratio is at most 0.25.
Consider RLPR, for which the enrichment ratio was at most 0.25.
Turning to ELMY, the enrichment ratio was at most 0.25.
As for SWVP, the figure is at most 0.25; as for TRPT, at most 0.25.
In the case of EQCM, the enrichment ratio is at most 0.25.
Next, AWWS: at most 0.25; RTDF: at most 0.25; VDMF: at most 0.25.
As for WEIS, the enrichment ratio is at most 0.25.
